# Laboratory results: article PMC4336329 (PLoS ONE, 2015)
# Out of some 310,000 compounds screened, about 14,000 (4.5%) showed an effect of 50% or more. Effects have a minus sign here. The list shows a part of the results.
# Target: human ether-à-go-go-related gene (hERG) potassium channel (human, UniProt Q12809)
# Assay: primary screen, population patch clamp on CHO cells stably expressing hERG
# 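Note: peak tail current of the secondary pulse compared with the same well before compound.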
# human ether-à-go-go-related gene (hERG) potassium channel, sequence (Q12809 whole entry, looked up): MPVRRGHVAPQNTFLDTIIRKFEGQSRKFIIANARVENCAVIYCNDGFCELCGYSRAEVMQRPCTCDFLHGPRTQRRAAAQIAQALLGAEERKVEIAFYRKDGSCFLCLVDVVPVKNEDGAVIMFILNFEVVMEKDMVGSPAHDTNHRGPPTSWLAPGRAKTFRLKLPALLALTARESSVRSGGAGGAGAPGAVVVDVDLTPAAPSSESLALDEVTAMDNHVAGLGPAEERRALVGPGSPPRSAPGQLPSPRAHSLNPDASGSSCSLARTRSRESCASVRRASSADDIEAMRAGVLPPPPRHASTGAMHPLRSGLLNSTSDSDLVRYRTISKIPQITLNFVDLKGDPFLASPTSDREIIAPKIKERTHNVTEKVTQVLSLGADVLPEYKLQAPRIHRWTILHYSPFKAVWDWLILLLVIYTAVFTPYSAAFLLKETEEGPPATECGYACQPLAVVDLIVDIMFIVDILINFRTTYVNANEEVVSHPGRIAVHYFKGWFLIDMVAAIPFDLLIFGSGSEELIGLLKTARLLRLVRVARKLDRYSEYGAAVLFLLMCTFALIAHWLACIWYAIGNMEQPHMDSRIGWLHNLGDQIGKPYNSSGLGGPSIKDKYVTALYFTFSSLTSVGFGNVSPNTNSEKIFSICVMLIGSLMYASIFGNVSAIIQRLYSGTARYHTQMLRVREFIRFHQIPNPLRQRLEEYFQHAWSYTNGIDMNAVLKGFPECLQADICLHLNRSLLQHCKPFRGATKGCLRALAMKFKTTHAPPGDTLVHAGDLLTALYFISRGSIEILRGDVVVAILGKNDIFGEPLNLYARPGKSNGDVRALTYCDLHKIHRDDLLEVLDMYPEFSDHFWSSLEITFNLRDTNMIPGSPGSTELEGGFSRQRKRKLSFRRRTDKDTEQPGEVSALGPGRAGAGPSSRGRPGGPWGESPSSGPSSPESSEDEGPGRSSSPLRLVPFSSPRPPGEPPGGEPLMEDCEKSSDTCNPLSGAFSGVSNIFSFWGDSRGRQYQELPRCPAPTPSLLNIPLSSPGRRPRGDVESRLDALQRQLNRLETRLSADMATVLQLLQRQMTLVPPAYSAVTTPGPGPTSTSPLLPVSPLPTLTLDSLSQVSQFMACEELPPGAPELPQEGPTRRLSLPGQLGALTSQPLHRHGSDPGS
row,Compound,"hERG current change (%, negative = inhibition) at 10uM [%]"
1,COc1ccc(NC(=O)C(=O)N/N=C/c2cccnc2)cc1,-7.67
2,CCOC(=O)N1CCN(S(=O)(=O)c2ccc(C(=O)N(CCN(C)C)c3nc4ccc(Cl)cc4s3)cc2)CC1.Cl,-28.5
3,COc1ccc(OC)c(-c2nnc(SCC(=O)N3CCCc4ccccc43)o2)c1,-34.7
4,COc1cccc(NC(=O)Nc2nc(SC(C)(C)C)ns2)c1,11.5
5,CCOC(=O)C1(CC2CCCCO2)CCN(Cc2nccn2-c2ccc(OC)cc2)CC1 (centres unmarked),-5.78
6,Cc1ccc(S(=O)(=O)Nc2cc3c4c(c2)C(C)C(=O)N4CCC3)cc1 (centres unmarked),-1.44
7,O=C(CCCn1ncn2c(cc3occc32)c1=O)N1CCc2ccccc2C1,-63
8,C[C@@]12C(=O)Nc3ccc(Br)cc3C(=O)N1[C@H]1c3cc(Br)ccc3OC[C@@H]1[C@@H]2c1ccccc1,36.4
9,O=C(Nc1cccn(Cc2c(Cl)cccc2Cl)c1=O)c1ccccc1Cl,0.676
10,O=c1[nH]c2ccc(NC(=S)Nc3ccc(F)cc3)cc2[nH]1,17.9
11,CCc1nn(CCCC(=O)NCc2cc(Br)ccc2OC)c(=O)c2cc3occc3n12,-2.73
12,O=C(CCNS(=O)(=O)c1ccccc1)N1CCN(C(c2ccccc2)c2ccccc2)CC1,-20.6
13,COc1cc(C(=O)NCCC2=CCCCC2)ccc1OCc1c(C)noc1C,9.16
14,O=c1c2c(nc3n1CCCCC3)-c1ccccc1CC21CCCCC1,13.9
15,O=C(NCCCN1CCCC1)c1ccc2c(c1)N(Cc1ccc(F)cc1)C(=O)c1ccccc1S2=O (centres unmarked),-26.1
16,Cc1cc(C)n(-c2nnc(C)n2/N=C/c2ccc(O)cc2)n1,16.6
17,Cc1c(C(=O)NCc2ccco2)cccc1[N+](=O)[O-],-6.07
18,CCCn1nnnc1NC(=O)c1cc(Cl)ccc1Cl,1.82
19,N/C(=N\OC(=O)CC1CCCCC1)c1ccccc1,-7.04

row,Compound,"hERG current change (%, negative = inhibition) at 10uM [%]"
1,COc1ccccc1N1CCN(C(=O)CCCn2c(=O)[nH]c3ccsc3c2=O)CC1,4.33
2,CCc1nc(SCC(=O)NCc2ccccc2)c2c(=O)n(C)c(=O)n(C)c2n1,3.98
3,CC1(CC(=O)Nc2ccccc2)NC(=S)N(c2ccccc2)N1 (centres unmarked),42.4
4,C=CCn1nc2n(c1=O)-c1ccccc1SC2,-2.47
5,O=S(=O)(c1ccc(Cl)cc1)N1CCCN(c2nc3ccc(Cl)cc3s2)CC1,11.8
6,Cc1cccn2c(=O)c3cc(S(=O)(=O)c4ccccc4)c(=N)n(CC4CCCO4)c3nc12 (centres unmarked),-15.3
7,Brc1ccc(/C=N/Nc2nncc(-c3ccccc3)n2)o1,10.6
8,Cc1cc(NC(=O)c2ccccc2)nc2c1c(=O)oc1ccccc12,30.6
9,Cc1ccc(SCC(=O)O/N=C(\N)c2ccc([N+](=O)[O-])cc2)cc1,-36.3
10,C/C(=N\NC(=O)CNC(=O)c1ccc(F)cc1)c1ccco1,3.59
11,Fc1ccc(-c2nc3ccccc3[nH]2)cc1,20.6
12,COc1ccc2[nH]cc(CCNC(=O)Cc3ccc(Br)cc3)c2c1,-10
13,Cc1ccc(-c2onc3ccc(Cl)cc23)cc1,-0.992
14,O=C1NC(c2ccc(Cl)cc2)Oc2ccccc21 (centres unmarked),18
15,COc1ccc(OCCCON2C(=O)c3ccccc3C2=O)cc1,-38.8
16,Cc1ccc(/C=C/C(=O)OCC(=O)NCCN2C(=O)CSC2=O)o1,29
17,CS(=O)(=O)N(CC(=O)Nc1ccccc1)Cc1ccc(Cl)cc1,-23.9
18,O=C(NCC#CCOCc1ccccc1)c1ccccc1,-6.3
19,O=C(Nc1ccc(N2CCN(C(=O)c3ccco3)CC2)cc1)c1ccc(F)cc1,-46.8

row,Compound,"hERG current change (%, negative = inhibition) at 10uM [%]"
1,O=C(CNc1ccc2ccccc2c1)N/N=C/c1cc2ccccc2nc1Cl,3.29
2,CCCOc1ncnc2c1sc1nc3c(cc12)COC(C)(C)C3,13.7
3,O=C(CSc1nncs1)Nc1ccc(N2CCCCC2)cc1,5.93
4,CC(=O)c1c(-c2ccccc2)[nH]c2ccccc12,15
5,COc1ccccc1CN1CC(C(=O)NCCSc2nnnn2C)CCC1=O (centres unmarked),20
6,Cc1ccc(S(=O)(=O)N(CC(=O)N/N=C/c2cccc3c2OCCO3)c2ccccc2F)cc1,-6.02
7,C/C(=N\Nc1ccc(S(=O)(=O)Nc2ccc(Cl)cc2)cc1[N+](=O)[O-])c1ccc(N2CCOCC2)cc1,3.59
8,Cc1cccc2c1NC(=O)C21OCC(CO)([N+](=O)[O-])CO1 (centres unmarked),12.3
9,Cc1ccc(COC(=O)NCc2cccnc2)cc1,22
10,COc1ccc(C(C)(C)C)cc1NC(=S)NCCN1CCOCC1,1.38
11,COc1ccccc1Cn1c(C)nnc1-c1cnn(C)c1N,-0.622
12,O=C(CN1C(=O)c2ccccc2C1=O)Nc1ccccc1C(=O)NC1CCCCC1,1.72
13,CSc1ccc(/C=N/NC(=O)CN2CCN(Cc3ccccc3Cl)CC2)cc1,-37.5
14,CC(C)c1cccc(C(C)C)c1OCCCCN1CCCC1,-22.7
15,Cc1ccccc1C(=O)N(Cc1nc2ccccc2c(=O)[nH]1)C1CCCC1,-1.81
16,Cc1cc(C)cc(NC(=O)Cn2c(=O)oc3cc(S(=O)(=O)N4CCC(C)CC4)ccc32)c1,-0.611
17,COc1ccc(-c2c(NC(=O)c3ccco3)oc3ccccc3c2=O)cc1OC,16.6
18,CC(SC(=S)N(C)Cc1cccs1)C(=O)O (centres unmarked),10.7
